Measured values: patent US4808630A, “Method of treating psychotic illnesses” (United States of America, priority 1988, dated 1989)

Legend:
[1] = HAL and OH-HAL concentrations in serum, red blood cells and brain of rats after HAL followed by isotretinoin (HPLC); conditions: HAL 1 mg/kg s.c.; for RBC Haloperidol: red blood cells
[2] = tested on: patient diagnosed as having schizophrenia; assay: Positive symptoms scale of the Brief Psychiatric Rating Scale (PosBPRS) in a schizophrenic patient; type: in vivo, human; conditions: subject 2
Excerpt: The isotretinoin then was stopped.
The isotretinoin was again stopped.

[3] = tested on: patient diagnosed as having schizophrenia; assay: Clinical observation and neuropsychological evaluation in schizophrenic patients
[4] = subject 2, second period of isotretinoin treatment

SMILES: O=C(CCCN1CCC(O)(c2ccc(Cl)cc2)CC1)c1ccc(F)cc1 [haloperidol, 4-[4-(p-chlorophenyl)-4-hydroxy-piperidino]-4'-fluorobutyrophenone]
- Serum ratio (oh-h/hal) ([1]; isotretinoin 0 mg/kg): 0.038
- Serum Haloperidol ([1]; isotretinoin 0 mg/kg, mean ± standard error, N=11): 44.8 ± 7.1 ng/mL
- Serum ratio (oh-h/hal) ([1]; isotretinoin 1 mg/kg i.p.): 0.060
- Serum Haloperidol ([1]; isotretinoin 1 mg/kg i.p., mean ± standard error, N=8): 67.5 ± 8.0 ng/mL
- Serum ratio (oh-h/hal) ([1]; isotretinoin 5 mg/kg i.p.): 0.044
- Serum Haloperidol ([1]; isotretinoin 5 mg/kg i.p., mean ± standard error, N=8): 73.3 ± 17.1 ng/mL
- Serum ratio (oh-h/hal) ([1]; isotretinoin 10 mg/kg i.p.): 0.029
- Serum Haloperidol ([1]; isotretinoin 10 mg/kg i.p., mean, standard error 19.0, N=8, * p < .05): 97.5 ng/mL
- RBC Haloperidol ([1]; isotretinoin 0 mg/kg, mean ± standard error): 13.4 ± 2.4 ng/mL
- RBC Haloperidol ([1]; isotretinoin 1 mg/kg i.p., mean ± standard error): 18.1 ± 4.8 ng/mL
- RBC Haloperidol ([1]; isotretinoin 5 mg/kg i.p., mean ± standard error): 33.8 ± 16.8 ng/mL
- PosBPRS average over the seven days prior to medication change ([2]; four weeks on haloperidol 30 mg/day, drug free 1.83): 1.00
- blood level of haloperidol (human, in vivo, 0.2 mg/kg/day): 13.7 ng/mL
- serum haloperidol level (human, in vivo, 0.4 mg/kg/day): 19.1 ng/mL
- serum haloperidol concentration (subject 2, isotretinoin 40 mg/day, haloperidol increased to 60 mg/day (0.8 mg/Kg/day), four successive samples over six weeks): unmeasurable
- haloperidol levels after discontinuation (subject 2, within one week of discontinuing haloperidol, benztropine and isotretinoin): fell to zero within one week
- parkinsonian symptoms ([3]; subject 2, on haloperidol 30 mg/day (0.4 mg/Kg/day)): developed parkinsonian symptoms

SMILES: CC1=C(/C=C/C(C)=C/C=C/C(C)=C\C(=O)O)C(C)(C)CCC1 [isotretinoin, 13-cis-retinoic acid]
- PosBPRS ([2]; 5 weeks drug free after isotretinoin alone was discontinued): 2.37
- PosBPRS ([2]; isotretinoin 40 mg/day with haloperidol 60 mg/day): 0.55
- PosBPRS ([2]; over three weeks after haloperidol, benztropine and isotretinoin discontinued): 1.12
- PosBPRS ([2]; six weeks on isotretinoin restarted without other medications): 0.35
- change in clinical condition ([3]; subject 1, after starting isotretinoin 0.6 mg/Kg/day with haloperidol 0.2 mg/Kg/day): no adverse change in their clinical condition
- neuropsychological performance (simple and complex memory, verbal fluency, attention, cognitive efficiency) ([3]; subject 2, 5 weeks after second isotretinoin course discontinued): dramatic declines to below pretreatment levels
- clinical presentation after isotretinoin discontinued ([3]; subject 2, second isotretinoin course (alone) stopped, noticeable by three days): worsened with flattening of affect, loss of motivation, and increasing social withdrawal
- block design [3, 4]: declined
- verbal fluency [3, 4]: improved
- neuropsychological performance levels ([3]; subject 2, second period of isotretinoin treatment vs end of preceding three week drug free period): no significant changes in performance levels
- clinical state after stopping isotretinoin ([3]; subject 2, within 2 days of stopping isotretinoin, still on haloperidol 60 mg/day): more parkinsonian and more irritable
